Source: PubChem BioAssay AID2675 (National Center for Advancing Translational Sciences (NCATS), 2010)
Hit rate of the full screen: of about 280,000 compounds, about 100 (0.036%) were called active. Inconclusive results, whose numbers are uncertain, are shown with a selection of clear calls. Calls follow the shape of the dose curve; as a rule, active = well fitted inhibition curve with a large enough effect in the signal ratio, with a control signal flat (not every such curve was filed as active); inconclusive = small, poorly fitted or top-dose-only effect, or effect the other way, or a change in a side signal; inactive = no such curve, though single readings can be large or run the other way; the % refers to the signal ratio. Potencies beside an inconclusive call are fits to weak or partial responses and may not hold up. A note “side channel” means that the fit belongs to a control or component signal, not to the main read-out.

Molecular target: Muscleblind-like protein 1 (Homo sapiens) (UniProt Q9NR56)
Assay: qHTS Assay for Inhibitors of MBNL1-poly(CUG) RNA binding
Details: TR-FRET MBNL1-His/biotin-(CUG)12 binding, 665/545 ratio; activity change, negative = inhibition: at 57.5 µM (top of the series)
Procedure, shortened: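 Compounds (final 92 nM to 58 uM) are added to His-tagged MBNL1 and biotin-(CUG)12, then terbium anti-His antibody and streptavidin-XL665 (5 nM final). After 60 min at room temperature, the 665/545 nm ratio is read.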
% is scaled to controls: 0 for no effect and ±100 for the full control effect; potency is read from the fitted curve at half-maximal effect; tags tell the direction and shape of the fitted curve or compound fluorescence and quenching.

UniProt Q9NR56, sequence (Q9NR56 whole entry, looked up): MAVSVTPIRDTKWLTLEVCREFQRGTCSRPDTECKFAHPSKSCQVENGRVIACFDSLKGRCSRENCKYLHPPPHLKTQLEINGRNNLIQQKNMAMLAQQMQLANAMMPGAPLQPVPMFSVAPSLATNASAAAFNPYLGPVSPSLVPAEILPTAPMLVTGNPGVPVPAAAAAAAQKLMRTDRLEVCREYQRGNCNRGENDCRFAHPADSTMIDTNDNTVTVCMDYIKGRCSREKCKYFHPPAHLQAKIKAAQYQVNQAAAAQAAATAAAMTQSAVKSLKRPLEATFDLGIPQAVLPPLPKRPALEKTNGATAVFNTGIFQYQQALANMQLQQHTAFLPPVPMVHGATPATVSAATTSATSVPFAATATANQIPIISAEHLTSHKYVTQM

Compound	Potency	activity change, negative = inhibition
CCCCN(C)C(=O)c1cc2cc3ccc(OC)cc3nc2s1	inconclusive: 17.8 µM [quencher, side channel, partial curve]	–
COc1ccc(C2=C(c3ccc([N+](=O)[O-])cc3)C(=O)OC2)cc1	inconclusive: 3.16 µM [quencher, side channel, full curve, poor fit]	–
CC(C)N(Cc1ccccc1)C(=O)c1ccc2nsnc2c1	inconclusive: 12.6 µM [quencher, side channel, partial curve]	–
Cc1ccc(NC(=S)c2nc3ccccc3[nH]2)c(C)c1	–	inactive: 0.352%
O=C(NNC(=S)Nc1ccc(Cl)cc1)c1cccs1	–	inactive: -15.1%
COc1ccc(N2CCN(Cc3nnc(-c4ccccc4)o3)CC2)cc1	inconclusive: 158 µM [inhibitor, partial curve]	–
CCOCCc1nnc(NC(=O)C2CCN(C(=O)c3ccco3)CC2)s1	–	inactive: -0.403%
Fc1ccc(C(CNC(=S)NC2CCCCC2)N2CCOCC2)cc1 (configuration not stated)	–	inactive: -4.62%
CCCCOC(=O)C1CN(c2ccccc2)N=C1C(C)=O (configuration not stated)	inconclusive: 17.8 µM [quencher, side channel, partial curve]	–
CC(C)CC(=O)NC(=S)Nc1nc(-c2ccc(Cl)cc2)cs1	–	inactive: -19%
O=C(NN1CCOCC1)c1cn(-c2ccccc2)nc1-c1cccs1	–	inactive: -1.98%
Cc1ccc(C(=O)N/C(=C\c2ccc(-c3ccc(Br)cc3)o2)C(=O)NC2CCS(=O)(=O)C2)cc1 (configuration not stated)	inconclusive: 100 µM [inhibitor, single point]	–
COC(=O)c1ccccc1NC(=O)C/C(C)=N/NC(=O)CC#N	inconclusive: 11.2 µM [quencher, side channel, partial curve]	–
CCOC(OCC)c1ccc(/C=C\c2nccc(N)n2)cc1	inconclusive: 14.1 µM [quencher, side channel, partial curve]	–
O=S(=O)(Nc1ccc(Cl)cc1)c1cccc2nsnc12	inconclusive: 25.1 µM [quencher, side channel, partial curve]	–
O=C1c2ccccc2C(=O)c2c(Nc3ccc(CCO)cc3)ccc(O)c21	inconclusive: 7.94 µM [quencher, side channel, partial curve]	–
OC[C@H]1OC(Nc2ccc(N=Nc3ccccc3)cc2)[C@@H](O)[C@@H](O)[C@@H]1O (some centres not stated)	inconclusive: 17.8 µM [quencher, side channel, partial curve]	–
CC(C(=O)N1CCCc2c1c(=O)oc1ccc(O)cc21)N1CCc2ccccc2C1 (configuration not stated)	inconclusive: 39.8 µM [quencher, single point]	–
CN1CCN(/C=C2\SC(=S)NC2=O)CC1	inconclusive: 25.1 µM [quencher, side channel, partial curve]	–
Cc1ccc(N=Nc2c(N)n(-c3ccccc3)[nH]c2=O)cc1	inconclusive: 15.8 µM [quencher, side channel, partial curve]	–
COc1ccc(CCC(=O)OC(C)C(=O)c2ccc(C)cc2)cc1 (configuration not stated)	–	inconclusive: -17.2% [phenotype inactive]
CCOC(=O)c1ccc(NC(=O)c2nn(CC)cc2Br)cc1	–	inactive: 10.4%
CCN(CCN(C)C)C(=O)C1CCN(S(=O)(=O)c2c(C)noc2/C=C/c2ccccc2F)CC1	inconclusive: 15.8 µM [quencher, side channel, partial curve]	–

Compound	Potency	activity change, negative = inhibition
COc1ccc(C2C(C(C)=O)=C(O)C(=O)N2c2nc3ccccc3s2)cc1OC (configuration not stated)	inconclusive: 28.2 µM [quencher, side channel, partial curve]	–
O=C(NNC(=O)C1CC1)c1cc2cc3ccccc3nc2s1	inconclusive: 14.1 µM [quencher, side channel, partial curve]	–
CC(C)(C)c1ccc(C(=O)N2CCC(C(=O)NC3CC3)CC2)cc1	–	inactive: -3.77%
Cc1cnccc1CNC(=O)C1CCC(=O)N(Cc2ccc(Cl)cc2)C1 (configuration not stated)	–	inactive: 4.12%
Cc1[nH]n(-c2ccccc2)c(=O)c1N=Nc1ccccc1C(=O)O	inconclusive: 15.8 µM [quencher, side channel, partial curve]	–
CCOC(=O)c1ccc(NC(=S)NCc2ccco2)cc1	–	inactive: -2.3%
CCc1ccc(N(CC(=O)NC2CCCC2)C(=O)CCC(=O)Nc2ccccn2)cc1	–	inactive: -0.463%
CCOC(=O)c1cnc2ccc(OC)cc2c1Nc1ccc2c(c1)OCCO2	–	inactive: 8.23%
N=C(N)SCc1nc2ccccc2c(=O)n1-c1ccccc1	inactive	–
CCN1CCN(C(c2nnnn2Cc2ccc3c(c2)OCO3)C(C)C)CC1 (configuration not stated)	–	inactive: 3.89%
CC1(C)CC(=O)C(N=Nc2ccc(OC(F)F)cc2)=C(O)C1	inconclusive: 12.6 µM [quencher, side channel, partial curve]	–
COc1ccc(-n2cc(CNCCc3nc(C)cc(C)n3)c(-c3ccccc3Cl)n2)cc1	–	inactive: -16.7%
O=c1oc2cc(O)ccc2cc1-c1ccc(F)cc1	inconclusive: 20 µM [quencher, side channel, partial curve]	–
CC(C)OC(=O)c1cc2ccccc2oc1=O	inconclusive: 31.6 µM [quencher, side channel, partial curve, poor fit]	–
COc1cc(NC(=S)NC(=O)c2ccc(C)cc2C)ccc1NC(=O)c1cccs1	inconclusive: 11.2 µM [fluorescent, side channel, full curve, poor fit]	–
N/C(=N\OC(=O)Nc1ccccc1)c1ncc([N+](=O)[O-])s1	inconclusive: 3.16 µM [quencher, side channel, full curve]	–
CN1CCC(OC(=O)c2cc3cc(Cl)cc(Cl)c3oc2=O)CC1	inconclusive: 14.1 µM [quencher, side channel, partial curve]	–
Cc1ccc(C)c(-n2c(-c3csc(C)c3)n[nH]c2=S)c1	–	inactive: 0.672%
COc1cc(CN2CCN(c3ccccc3C)CC2)cc([N+](=O)[O-])c1O	inconclusive: 15.8 µM [quencher, side channel, partial curve]	–
N=c1c2c(n(Cc3ccc(Cl)cc3)c3c1CCC3)CCC2	–	inactive: -4.81%
COc1ccc(CCNC(=O)c2cccc(Br)c2)cc1OC	–	inactive: -0.24%
CC1(C)Cc2c(c(-c3ccccc3)[nH]c(=O)c2C#N)CO1	inconclusive: 11.2 µM [quencher, side channel, partial curve, poor fit]	–
NS(=O)(=O)c1ccc(CNC(=O)/C=C/c2ccccc2[N+](=O)[O-])cc1	inconclusive: 17.8 µM [quencher, partial curve]	–

Compound	Potency	activity change, negative = inhibition
COc1cccc(OC)c1/C(O)=C(\C#N)c1nc2ccccc2[nH]1	–	inactive: 2.07%
O=C(N/N=C/C1=Cc2ccccc2OC1)c1ccncc1	inconclusive: 1.26 µM [quencher, side channel, full curve]	–
CC1=NN(c2ccc(C)cc2)C(=O)/C1=C\C=C\c1ccccc1	–	inactive: -14.6% [at 11.5 µM]
Cc1ccccc1C1C(C#N)=C2N=C(N)c3c(sc4c3CCCCC4)N2C2=C1C(=O)CC(C)(C)C2 (configuration not stated)	–	inactive: -6.15%
C/C(=N/Oc1nc(C)cc(C)n1)c1ccc(Cl)cc1Cl	–	inactive: 8.56%
Cc1ccc(OCCCN2C(=O)C(=O)c3cccc(C)c32)cc1	inconclusive: 20 µM [quencher, side channel, single point]	–
Oc1c(CN2CCN(c3ccccc3)CC2)cc(Br)c2cccnc12	–	inactive: 0.403%
Cc1nnc(SCc2cccs2)[nH]c1=O	inconclusive: 3.55 µM [fluorescent, side channel, single point]	–
CC(C)c1nnc(NC(=O)CN2C(=O)c3ccccc3C2=O)s1	–	inactive: 0.896%
CCOC(=O)C1=C(O)/C(=C/c2cccc(OC)c2O)N=C1C	inconclusive: 15.8 µM [quencher, side channel, partial curve]	–
O=C(CN1CCOCC1)NNC(=S)Nc1ccc(Cl)cc1	–	inactive: 1.4%
Cc1cccc(Nc2ccc(C(=O)O)cc2[N+](=O)[O-])c1C	inconclusive: 28.2 µM [quencher, side channel, single point]	–
Cc1ccc(CNC(=O)c2cnc3ccccc3n2)cc1	inconclusive: 25.1 µM [quencher, side channel, partial curve]	–
CCCSc1cc(NCCOC(C)=O)c([N+](=O)[O-])c2nonc12	inconclusive: 0.282 µM [quencher, side channel, full curve, poor fit]	–
O=C(CN1C(=O)/C(=C/c2ccccc2F)Sc2ccccc21)NCc1cccnc1	inconclusive: 22.4 µM [quencher, side channel, single point]	–
CCCCn1c(=N)n(CC(=O)c2ccc([N+](=O)[O-])cc2)c2ccccc21	inconclusive: 39.8 µM [quencher, single point]	–
Cc1nc(N2CCN(c3ccccn3)CC2)c2c(C)c(C(=O)Nc3c(F)cc(F)cc3Br)sc2n1	inconclusive: 39.8 µM [fluorescent, side channel, single point]	–
Cc1ccc(C2c3c(oc4ccccc4c3=O)C(=O)N2c2nncs2)cc1 (configuration not stated)	inconclusive: 3.16 µM [quencher, side channel, full curve]	–
COc1ccc(Cl)cc1C(=O)N1CCN=C1SC	inconclusive: 8.91 µM [quencher, side channel, single point]	–
CCOC(=O)/C(C#N)=C/c1cn(CCC(=O)O)nc1-c1ccc(F)cc1	inconclusive: 12.6 µM [quencher, side channel, partial curve, poor fit]	–
Cc1ccc(N(C)C2=NC(=O)CS2)cc1Cl	–	inactive: -8.78%
